Assay results as given in patent US12559529B2, “NPY2 receptor agonists” (Boehringer Ingelheim International GmbH, priority 2019, dated 2026).
At least one peptide structure holds a part that was inferred or is arguable (an end, a ring closure or a residue).

Target: T1, Human Neuropeptide Y2 Receptor (Homo sapiens, UniProt P49146)
T1 construct: purchased CHEMICON HTS066M
T1 sequence (P49146 1-381): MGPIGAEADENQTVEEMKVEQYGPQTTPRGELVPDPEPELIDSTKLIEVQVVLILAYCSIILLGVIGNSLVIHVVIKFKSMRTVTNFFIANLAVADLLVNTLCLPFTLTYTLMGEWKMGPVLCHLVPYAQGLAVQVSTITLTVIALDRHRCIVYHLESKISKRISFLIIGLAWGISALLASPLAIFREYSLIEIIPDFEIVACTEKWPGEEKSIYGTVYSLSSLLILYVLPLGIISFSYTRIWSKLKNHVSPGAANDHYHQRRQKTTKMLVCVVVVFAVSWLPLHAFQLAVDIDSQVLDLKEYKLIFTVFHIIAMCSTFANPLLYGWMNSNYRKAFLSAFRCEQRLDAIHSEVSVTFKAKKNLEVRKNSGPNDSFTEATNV
Assay: Radioligand binding competition assay (RLB)
Settings: Table 3; human 125I-PYY (1-36) 0.02 nM, Y2 receptor membranes
Method: The filtration RLB assay was carried out in 96-well plates in a final volume of 100 μl per well. Freeze-dried test peptides were dissolved in 100% dimethyl sulfoxide (DMSO) to stock solutions of 1 mM and serial dilutions were performed in assay buffer (50 mM HEPES, 5 mM MgCl2, 1 mM CaCl2), pH 7.4) containing 0.2% ovalbumin. […] Next, 80 μL membranes (HTS066M, ChemiSCREEN™ Human Neuropeptide Y2 Receptor Membrane Preparation, CHEMICON) were added to each well to give a final protein concentration of 0.5 μg/well. The plates were sealed and incubated at room temperature for 2 hours in a plate shaker set at 400 rpm. The incubation was stopped by vacuum filtration onto 0.5% poly-ethylene amine (PEI) presoaked GF/C filters using a 96-well FilterMate™ harvester (Perkin Elmer) followed by four washes with 300 μl/well ice-cold wash buffer (50 mM HEPES, 500 mM NaCl, pH7.4). Filter plates were then dried for 60 min at room temperature and the bottom of the plates was sealed with backing tape UniFilter-96. Finally, 50 μl/well scintillation counter cocktail (Microscint20, Packard) was added and the radioactivity was counted in the Packard TopCount NXT scintillation counter. IC50 values (the half maximal inhibitory concentration of the agonist) were calculated by nonlinear regression analysis of sigmoidal dose-response curves.

CC(C)CC(=O)N[C@@H](C)C(=O)N1C[C@H](O)C[C@H]1C(=O)N[C@@H](CCC(=O)O)C(=O)N[C@@H](CCCCNC(=O)COCCOCCNC(=O)COCCOCCNC(=O)CC[C@H](NC(=O)CCCCCCCCCCCCCCCCC(=O)O)C(=O)O)C(=O)N1CCC[C@H]1C(=O)N[C@@H](CCC(=O)O)C(=O)N[C@@H](CCC(=O)O)C(=O)N[C@@H](CC(=O)O)C(=O)N[C@@H](C)C(=O)N[C@@H](CO)C(=O)N1CCC[C@H]1C(=O)N[C@@H](CCC(=O)O)C(=O)N[C@@H](CCC(=O)O)C(=O)N[C@@H](CC(C)C)C(=O)N[C@@H](CCC(N)=O)C(=O)N[C@@H](CCCNC(=N)N)C(=O)N[C@@H](Cc1ccc(O)cc1)C(=O)N[C@@H](Cc1ccc(O)cc1)C(=O)N[C@H](C(=O)N[C@@H](CO)C(=O)N[C@@H](CC(C)C)C(=O)N[C@@H](CCCNC(=N)N)C(=O)N[C@@H](Cc1c[nH]cn1)C(=O)N[C@@H](Cc1ccc(O)cc1)C(=O)N[C@@H](Cc1ccc(O)cc1)C(=O)N[C@@H](CC(N)=O)C(=O)N[C@@H](Cc1c[nH]c2ccccc12)C(=O)N[C@@H](CC(C)C)C(=O)N[C@H](C(=O)N[C@@H](CCCNC(=N)N)C(=O)N[C@@H](CCC(N)=O)C(=O)N[C@@H](CCCNC(=N)N)C(=O)N[C@@H](Cc1ccc(O)cc1)C(N)=O)[C@@H](C)O)C(C)C [Compound 2, N{alpha-4}-(3-methylbutanoyl)-N{epsilon-7}-[2-(2-{2-[2-(2-{2-[(4S)-4-carboxy-4-(17-carboxyheptadecanamido)butanamido]ethoxy}ethoxy)acetamido]ethoxy}ethoxy)acetamido]-[4A,5Hyp,7K,9E,18Q,22V,28Y,30W,31L]hPYY (4-36)]
Ki: 1.81 nM
